Measured values as given in patent US20160074301A1, “ANTI-AGING SKIN CARE COMPOSITIONS AND REGIMENS” (The Procter & Gamble Company, priority 2014, published 2016).
Read-outs that look alike come from different tables or passages of the source.

Tests used:
[1] = test system: eigengene for the "Cell Adhesion and Junction" theme; assay: Eigengene of younger-appearance / Cell Adhesion and Junction co-expression module, treated cultured human keratinocytes
[2] = test system: overall appearance associated genes; assay: Effect on overall appearance associated genes

With palmitoyl-lysine-threonine [Pal-KT] as the substance, how does the “effect on eigengene, Cell Adhesion and Junction theme (FIG. 4)” value (“effect on eigengene” for short) [1] read?
Its value is “significantly up-regulate”.

And the “anti-aging benefit on the overall appearance associated genes” value [2]?
Its value is “strong anti-aging benefit”.

Which “effect on eigengene” value [1] does the source give for “palmitoyl-lysine-threonine-threonine-lysine-serine [Pal-KTTKS]” here?
The value was “significantly up-regulate”.

What about the “effect on eigengene” value ([1]; listed as Pal-KTTS) of the same substance?
The value was “significantly increase”.
